Measured values as given in PubChem BioAssay AID485294 (National Center for Advancing Translational Sciences (NCATS), 2010).
Out of some 370,000 compounds screened, about 150 (0.041%) were called active. Inconclusive means that the source gave no clear call. Such entries were picked first, then a sample of the others. Calls follow the shape of the dose curve; as a rule, active = well fitted inhibition curve with a large enough effect; inconclusive = small, poorly fitted or top-dose-only effect; inactive = flat fitted curve, though single readings scatter. No potency is given beside an inconclusive call; the fits are too rough.

These molecules were tested against Beta-lactamase (Escherichia coli (strain K12)) (UniProt P00811) (assay: qHTS Inhibitors of AmpC Beta-Lactamase (assay with detergent)). Settings: AmpC hydrolysis of nitrocefin, absorbance 480 nm, 0.01% Triton; series mostly up to 114 µM.
Outline: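 AmpC (5.3 nM in the dispensed reagent) in 20 mM phosphate pH 7.0 with 0.01% (detergent screen) or 0.0001% Triton X-100 was preincubated with compounds for 15 min at room temperature. Nitrocefin was then added from an 800 uM solution, and hydrolysis was followed at 480 nm.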
Also: nearly all actives have a fitted effect of over 25% in size.
Potency is read from the fitted curve at half-maximal effect; tags tell the direction and shape of the fitted curve.

Sequence of UniProt P00811 (P00811 whole entry, looked up): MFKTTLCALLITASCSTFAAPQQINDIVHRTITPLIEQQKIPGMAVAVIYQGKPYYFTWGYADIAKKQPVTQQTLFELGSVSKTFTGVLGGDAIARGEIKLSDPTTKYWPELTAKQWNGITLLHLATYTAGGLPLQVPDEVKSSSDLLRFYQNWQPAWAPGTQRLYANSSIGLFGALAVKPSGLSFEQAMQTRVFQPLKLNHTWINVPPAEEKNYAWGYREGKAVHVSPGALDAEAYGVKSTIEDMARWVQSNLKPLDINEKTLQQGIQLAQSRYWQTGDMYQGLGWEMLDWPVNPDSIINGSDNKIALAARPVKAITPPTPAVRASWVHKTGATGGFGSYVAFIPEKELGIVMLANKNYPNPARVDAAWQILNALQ

Compound | Potency
NC(=O)CSc1nc(C23CC4CC(CC(C4)C2)C3)nc2ccccc12 | inactive
CCN(CC)S(=O)(=O)c1ccc(N2CCOCC2)c(NC(=O)c2ccccc2)c1 | inactive
O=C(CSc1nc2c(cnn2-c2ccccc2)c(=O)[nH]1)N1N=C(c2cccs2)CC1c1ccc(F)cc1 (stereo unspecified) | inconclusive [inhibitor, single point]
Cc1ccc(S(=O)(=O)NC(=O)NCc2ccc(Cl)cc2)cc1 | inconclusive [inhibitor, full curve, poor fit]
CCn1c(O)c(C=NCc2cccs2)c(=O)n(CC)c1=S | inconclusive [inhibitor, full curve, poor fit]
CCN(Cc1nc2cc(Cl)ccc2c(=O)[nH]1)C(=O)c1cccc(OCc2c(C)noc2C)c1 | inactive
Cc1ccc(-c2c(C(=O)N3CCN(c4ccc(F)cc4)CC3)oc(=O)c3ccccc23)cc1 | inactive
O=C1c2oc3ccc(Cl)cc3c(=O)c2C(c2ccccn2)N1CCCN1CCOCC1 (stereo unspecified) | inconclusive [inhibitor, full curve, poor fit]
c1ccc2c(c1)CCCc1cc(NCCN3CCOCC3)nnc1-2 | inconclusive [inhibitor, full curve, poor fit]
CC(C)c1ccc(C(O)c2cnc(C(C)C)n2C)cc1 (stereo unspecified) | inconclusive [inhibitor, full curve]
Nc1ccc(C(=O)N/N=C/c2cccc(Oc3ccccc3)c2)cc1 | inconclusive [inhibitor, full curve, poor fit]
COc1ccc(S(=O)(=O)N2CCOC2CNC(=O)C(=O)NCCc2ccccc2OC)cc1 (stereo unspecified) | inconclusive [inhibitor, partial curve, poor fit]
O=C(Oc1ccc2c(=O)c(Cl)coc2c1)c1cccnc1 | inconclusive [inhibitor, single point]
O=C(N/N=C/c1ccccc1C(F)(F)F)c1ccc(O)cc1 | inconclusive [inhibitor, single point]
CCC1(C(=O)c2ccccc2)C(c2ccc([N+](=O)[O-])cc2)C1(C(=O)OC)C(=O)OC (stereo unspecified) | inconclusive [inhibitor, partial curve]
CCOC(=O)Cc1ccc(NC(=O)c2ccc([N+](=O)[O-])cc2)cc1 | inactive
CC(C)CN1CCC(C(=O)N2CCN(c3ccccc3F)CC2)CC1 | inconclusive [inhibitor, full curve]
CC(=O)O[C@H]1CCC2C3CCC4=CC(=O)CCC4=C3C=C[C@@]21C (stereo partly specified) | inactive
CCc1ccccc1NC(=S)N(CCN1CCCCC1)Cc1ccco1 | inconclusive [inhibitor, partial curve]
CCCn1nnnc1NCc1ccc(N(CC)CC)cc1 | inactive
O=C(c1cccc([N+](=O)[O-])c1)c1cc2ccccc2o1 | inconclusive [inhibitor, full curve, poor fit]
O=C(CN1C(=O)COc2ccc(S(=O)(=O)N3CCCCCC3)cc21)N1CCN(c2ccc(F)cc2)CC1 | inactive

Compound | Potency
CCNc1nc(NCC)nc(SCCOC(=O)c2ccccc2)n1 | inconclusive [inhibitor, full curve, poor fit]
NC(=O)c1cc(S(=O)(=O)NCc2cccs2)cs1 | inactive
O=C(NN1C(=O)c2ccccc2C1=O)c1ccncc1 | inactive
CNC[C@H](CC1CCCCC1)NC[C@H](CO)NCCc1cccc(C(F)(F)F)c1 | inconclusive [inhibitor, partial curve, poor fit]
Fc1ccc2[nH]c3c(N4CCSCC4)ncnc3c2c1 | inconclusive [inhibitor, full curve]
O=C(NCCC1=CCCCC1)c1cccc2c1C(=O)N(C1CCCCC1)C2 | inconclusive [inhibitor, full curve]
COc1ccc(-n2c(O)c(Cc3ccccc3)c(=O)n3nc(-c4ccccc4)c(=O)cc23)cc1 | inconclusive [inhibitor, single point]
COc1ccccc1C(=O)NCC(=O)N=Nc1c(O)n(C(C)C)c2ccccc12 | inactive
CS(=O)(=O)N(CC(=O)NCCSCc1c(F)cccc1Cl)c1ccc2c(c1)OCO2 | inconclusive [inhibitor, full curve, poor fit]
Fc1cccc(Cl)c1CSc1nnc(CN2CCOCC2)n1-c1ccccc1 | inconclusive [inhibitor, full curve]
COc1cc(OC)cc(C(=O)N/N=C(\C)CC(=O)Nc2ccccn2)c1 | inactive
O=C(CN(CCc1ccccc1)C(=O)CN1C(=O)COc2ccccc21)NCc1ccco1 | inconclusive [inhibitor, full curve, poor fit]
COC(=O)c1c(-c2ccc(OC)cc2)sc2cc3c(cc12)OCO3 | inactive
COC(=O)c1sc(-c2ccccc2)cc1NC(C)=O | inactive
N[C@@H](Cc1c[nH]c2ccccc12)c1nnc(SCc2ccc(Cl)cc2)o1 | inconclusive [inhibitor, full curve, poor fit]
C=CCn1c(SCc2cccnc2)nnc1-c1ccncc1 | inconclusive [inhibitor, full curve, poor fit]
CC(C)CCn1c(=O)c2c(nc3n2CCCN3Cc2ccccc2)n(C)c1=O | inconclusive [inhibitor, full curve]
CCOc1ccc(-n2c(SCc3nc(-c4ccc(C)cc4)no3)nnc2-c2ccncc2)cc1 | inconclusive [inhibitor, partial curve, poor fit]
Cc1c(C(=O)N2CCN(C(c3ccccc3)c3ccccc3)CC2)oc2ccccc12 | inactive
C/C(=N\NC(=O)c1ccc(Br)cc1)c1cccnc1 | inconclusive [inhibitor, full curve]
O=C(COC(=O)c1cn(-c2ccccc2)nc1-c1cccnc1)NC1CC1 | inconclusive [inhibitor, full curve]
O=C(CNCc1ccccc1)Nc1cccc(Cl)c1Cl | inconclusive [inhibitor, full curve, poor fit]

Compound | Potency
CCn1c(SCC(=O)N/N=C/c2ccc(C)o2)nnc1-c1ccc(C(C)(C)C)cc1 | inconclusive [inhibitor, full curve, poor fit]
COc1ccc(NC(=O)CSc2nnc3ccc(-c4cccnc4)nn23)c(OC)c1 | inconclusive [inhibitor, full curve, poor fit]
Cn1cc(S(=O)(=O)NC2CCCCC2)c(=O)n(C)c1=O | inconclusive [inhibitor, full curve, poor fit]
CC(CNC(=O)c1ccc(Cn2c(=O)c3cccn3c3cccnc32)cc1)c1ccccc1 (stereo unspecified) | inactive
COc1ccc(NC2=NCC(=O)N2c2ccccc2)c(OC)c1 | inconclusive [inhibitor, full curve]
CCCC(CCC)C(=O)NCCN1CCOCC1 | inconclusive [inhibitor, single point]
CCCCc1ccc(NC(=O)CSc2nc3ccccc3nc2N2CCOCC2)cc1 | inactive
CC(=O)NCCN1C(=O)C2C3c4ccccc4C(c4ccccc43)C2C1=O (stereo unspecified) | inconclusive [inhibitor, full curve, poor fit]
Cc1ccccc1N1CC(C(=O)N2CCc3ccccc32)CC1=O (stereo unspecified) | inconclusive [inhibitor, full curve, poor fit]
O=C(CCn1c(=O)sc2ccccc21)Nc1nc2ccccc2s1 | inconclusive [inhibitor, full curve]
CC1=CS/C(=C(/C#N)C(=O)NCc2ccco2)N1c1ccccc1 | inconclusive [inhibitor, full curve, poor fit]
O=C(Cc1ccccc1)NCCc1ccc(Cl)cc1Cl | inconclusive [inhibitor, full curve, poor fit]
Cc1cc(-c2ccccc2)nc(Cl)c1C#N | inconclusive [inhibitor, single point]
Cn1c(Cc2ccccc2)nnc1SCc1ccc(C(=O)O)cc1 | inconclusive [inhibitor, full curve, poor fit]
Cc1cc(C(=O)COC(=O)CN(C)S(=O)(=O)c2ccc(Cl)cc2)c(C)n1Cc1cccs1 | inconclusive [inhibitor, single point]
COc1c(N2CCN[C@H](C)C2)c(F)cc2c(=O)c(C(=O)O)cn(C3CC3)c12 | inconclusive [inhibitor, full curve, poor fit]
Cn1cc(C(=O)NCCN2CCN(c3cccc(Cl)c3)CC2)c2c3ccccc3n(C)c2c1=O | inconclusive [inhibitor, single point]
CSc1ccc(Cl)c(C(=O)N(C)CC(=O)Nc2ccc(N3CCOCC3)cc2)c1 | inconclusive [inhibitor, full curve]
COc1cccc(CNc2ncnc3ccc(-c4c(C)noc4C)cc23)c1 | inconclusive [inhibitor, full curve, poor fit]
CCOc1ccccc1C(=O)NCC(=O)OCC(=O)NCCc1ccc(S(N)(=O)=O)cc1 | inconclusive [inhibitor, full curve, poor fit]
COc1ccccc1NS(=O)(=O)c1cc(NC(=O)c2cnccn2)ccc1N1CCOCC1 | inactive
CC(=O)Nc1sc(NC(=O)c2ccccc2)nc1-c1cccs1 | inconclusive [inhibitor, full curve, poor fit]
